According to PubChem BioAssay AID504466 (National Center for Advancing Translational Sciences (NCATS), 2011):
The whole screen tested about 330,000 compounds, of which about 4,200 (1.3%) were called active. Inconclusive means that the source gave no clear call. Such entries were picked first, then a sample of the others. Calls follow the shape of the dose curve; as a rule, active = well fitted activation curve with a large enough effect; inconclusive = small, poorly fitted or top-dose-only effect; inactive = no such curve, though single readings can be large or run the other way. Potencies of inconclusive entries are doubtful fits and often do not repeat.

Experiment: qHTS screen for small molecules that induce genotoxicity in human embryonic kidney (HEK293T) cells expressing luciferase-tagged ELG1; also: nearly all actives have a fitted effect of over 60% in size; as to activity change, positive = activation: % of control where 0% means no effect
Conditions: HEK293T ELG1-luciferase reporter, luminescence, 16 h; series mostly up to 46 µM; activity change, positive = activation: at the top concentration
How it was run: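 ELG1-luciferase HEK293T cells, 2,000/well; compound pinned in; 16 hr, 37 °C, 5% CO2; ONE-Glo, 30 min RT; luminescence on CCD imager.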
Potency is read from the fitted curve at half-maximal effect; tags tell the direction and shape of the fitted curve.

| Compound | Potency | activity change, positive = activation |
| --- | --- | --- |
| CN(C)C(=O)c1ccc(-c2cc(C(F)(F)F)nn2C)s1 | inconclusive: 18.3 µM [activator, partial curve] | – |
| COc1ccc(/C=C2/N=C(SCC(=O)Nc3cc(C)on3)N(c3ccccc3)C2=O)cc1 | inconclusive: 20.6 µM [activator, partial curve, poor fit] | – |
| Cc1ccc(-n2ccc(=O)c(C(=O)Nc3ccc(S(=O)(=O)Nc4nccs4)cc3)n2)cc1 | – | inactive: 3.7% |
| Cc1ccc(Nc2cc(C)nn2-c2nc(C)cc(=O)[nH]2)cc1 | inconclusive: 20.6 µM [activator, single point] | – |
| Nc1cc(C2CCCC2)nn1-c1ccccc1 | inconclusive: 5.8 µM [activator, single point] | – |
| O=C(CSc1nc2ccccc2c(=O)[nH]1)Nc1nc(-c2ccc(Br)cc2)cs1 | inconclusive: 29.1 µM [activator, single point] | – |
| CC(C)Oc1ccc(Nc2ncnc3ccccc23)cc1 | inconclusive: 3.66 µM [activator, full curve, poor fit] | – |
| O=C(OCC(F)(F)F)c1cccc(COc2ccc3ccccc3c2)c1 | inconclusive: 0.0731 µM [activator, full curve, poor fit] | – |
| Fc1cccc(CSc2ccc(-c3ccco3)nn2)c1 | inconclusive: 14.6 µM [activator, partial curve] | – |
| Cc1cc(NC(=O)/C=C/c2ccccc2)no1 | inconclusive: 10 µM [activator, partial curve, poor fit] | – |
| Cc1cc(O)c(/C=N/Nc2ccc(Cl)cc2)c(=O)o1 | – | inactive: 9.56% |
| Cc1cc(=O)[nH]c2nnc(-c3ccc(Br)cc3)n12 | inconclusive: 10.3 µM [activator, partial curve] | – |
| O=C(NCCc1ccccc1)c1ccc2c(c1)OCCCO2 | inconclusive: 0.0052 µM [activator, partial curve, poor fit] | – |
| COc1ccc(/C=C/c2nc(-c3ccccc3O)n[nH]2)cc1OC | inconclusive: 11.6 µM [activator, partial curve] | – |
| COc1ccccc1NC(=O)c1ccc2nsnc2c1 | inconclusive: 3.55 µM [activator, full curve] | – |
| C=CCn1c(-c2ccc(N)cc2)nc2ccccc21 | active: 18.4 µM | – |
| Cc1cc(-n2c(C)cc(C(=O)CSc3ccccn3)c2C)no1 | inconclusive: 4.61 µM [activator, partial curve, poor fit] | – |
| COc1cc(/C=N/NC(=S)N/N=C/c2cc(OC)c(OC)c(OC)c2)cc(OC)c1OC | inconclusive: 10.3 µM [activator, partial curve, poor fit] | – |
| CCOc1ccc(Nc2oc(-c3cccc(Cl)c3)nc2C#N)cc1 | inconclusive: 2.59 µM [activator, full curve, poor fit] | – |
| Cc1ccc(Nc2nc(COC(=O)COc3ccc(C=O)cc3)cs2)cc1 | inconclusive: 23.1 µM [activator, single point] | – |
| C/C(=N/NC(=O)c1cccs1)c1ccco1 | inconclusive: 16.4 µM [activator, partial curve, poor fit] | – |
| Clc1ccc(-n2ncc3c(NCCN4CCOCC4)ncnc32)cc1 | active: 3.66 µM | – |
| CC(=O)C(=Cc1cc(C)n(-c2ccccc2)c1C)C(C)=O | – | inactive: -1.18% |
| COc1ccccc1-c1nc(-c2cccc(C)c2)no1 | active: 1.16 µM | – |

| Compound | Potency | activity change, positive = activation |
| --- | --- | --- |
| O=[N+]([O-])c1ccc(C2Oc3ccccc3C3CC(c4ccccc4)=NN32)s1 (configuration not stated) | inconclusive: 2.59 µM [activator, partial curve] | – |
| CCC(C)NC(=O)COc1ccc(OCc2ccccc2)cc1 (configuration not stated) | – | inactive: -5.21% |
| CCN(CC)S(=O)(=O)c1ccc2oc(Nc3ccccc3)nc2c1 | inconclusive: 4.11 µM [activator, full curve] | – |
| COc1cc2cc(CN(Cc3cccnc3)C(=O)Nc3ccccc3F)c(=O)[nH]c2cc1OC | – | inactive: -3.99% |
| S=c1[nH]nc(-c2cc(-c3ccsc3)n[nH]2)n1-c1cccc2ccccc12 | inconclusive: 14.6 µM [activator, partial curve, poor fit] | – |
| CCn1cc(C(=O)Nc2ccc(C)cc2C)c(=O)c2ccc(C)nc21 | – | inactive: -2.95% |
| CCCc1ccc(OCc2ccc(C(=O)N3CCCC3)o2)cc1 | – | inactive: 5.27% |
| Cc1ccc(C(=O)NCc2ccccc2)cc1Br | – | inactive: 6.13% |
| C/C(=N\NC(=O)c1ccccc1O)C1CC1 | – | inactive: 22% |
| CCCn1c(NC(=S)Nc2ccccc2)nc2ccccc21 | inconclusive: 29.1 µM [activator, single point] | – |
| COc1cc(NC(=O)c2ccccc2Cl)ccc1NC(=O)c1cccs1 | inconclusive: 11.2 µM [activator, partial curve, poor fit] | – |
| O=C(Nc1cc2c(cc1Cl)OCCCO2)c1ccc(F)cc1 | inconclusive: 16.4 µM [activator, partial curve] | – |
| COc1ccc(-c2cn3cccc(C)c3n2)cc1Br | inconclusive: 2.59 µM [activator, full curve] | – |
| N#C/C(=C\Nc1ccc(F)c(Cl)c1)S(=O)(=O)c1ccccn1 | – | inactive: -5.53% |
| Cc1ccc2nc(-c3ccc(NC(=O)CCS(=O)(=O)c4ccccc4)cc3)sc2c1 | inconclusive: 0.731 µM [activator, partial curve] | – |
| COc1ccc2nc(SCC(=O)c3ccco3)[nH]c2c1 | inconclusive: 16.4 µM [activator, partial curve] | – |
| N#Cc1cccc(NCC(=O)Nc2ccc3c(c2)OCCO3)c1 | active: 2.31 µM | – |
| NNC(=O)COc1ccccc1[N+](=O)[O-] | – | inactive: 0.487% |
| Cc1ccc(-c2csc(C(C#N)=C3CCCC3)n2)cc1 | inconclusive: 2.31 µM [activator, full curve, poor fit] | – |
| O=C(CSc1cn[nH]n1)Nc1nc2ccccc2s1 | inconclusive: 3.55 µM [activator, full curve, poor fit] | – |
| CCc1ccc(C(=O)N/N=C/c2cccc3ccccc23)nc1 | inconclusive: 23.1 µM [activator, single point] | – |
| Brc1ccc(-c2nc(-c3ccncc3)no2)o1 | active: 18.4 µM | – |
| COc1ccc(-c2csc(N=C(N)N)n2)cc1 | inconclusive: 20.6 µM [activator, partial curve, poor fit] | – |
